The values below come from the RNAGym collection of RNA variant scans (doi:10.7554/elife.90254).

The chains are these.
B1: OR4K15 (parent)
chain: GUUAACGGUCAUAGGCCAUGGAAACUAGGAGCACCAUUUCGCUGCCAGUGAAGAAAUGAACAAAGAAAAUCUGGGCCAGGCAGGCAUCAAAAGAAAUAGUCUUGCGCUCAACCAGAAAGUCUGUAAUCAUUUUAAGGGUA

Read counts are not given, so values of variants with three or more changes are uncertain.

In the data set the parent is B1. Nature of the data set: self-cleavage, relative activity (ratio to wild type); higher = more cleavage; in vitro, sequencing; the parent is a self-cleaving ribozyme.
For the variant C6U G29A U43A, the self-cleavage was found to be 1.34.
With A5U A68G A91G A125G, the self-cleavage came out at 0.86.
On to A5U A54G A90G U132A, for which the self-cleavage was determined as 0.97.
For U9A A23G U39C, the self-cleavage is 1.
With U9A A18G U49C A55G G74U A135U, the self-cleavage was 0.18.
Regarding A5G U9A A62G A86G A92G, the self-cleavage is 0.95.
On to A5U A27U A54G A60G, for which the self-cleavage worked out at 1.
Next, U9A A56G U103C: 0.59; A5G U57C U72C: 0.18.
For the variant A5G A68G U127A, the self-cleavage was determined as 1.71.
Regarding G8A U19C U103C, the self-cleavage worked out at 1.08.
On to U9A A33U U37C A94G, for which the self-cleavage came out at 1.64.
Next, A5G U70C A96G A111G U132C: 0.03.
On to A5U U9C A23U A111G, for which the self-cleavage came out at 0.16.
A5G U102C U108C: the self-cleavage came to 0.11.
With A5G G8A U37A U43C U127C G137A, the self-cleavage came to 1.23.
Next, A5G U72C U108C: 0.05; A5G C40U A125G: 0.54.
Next, A5G U87A A110U: 1.43; G7A U43C U49C A95G A116U: 0.65.
The value for A5G U108C A111G was 0.09; that for A5U A30G U37C A68G A69G A117G was 0.52; that for A5G U39A A82U U120C was 0.23.
For U9A U19A A55G A62G A140G, the self-cleavage stood at 0.56.
Next, C6U U39C A117G A126G: 1.37.
Take A5G U19C U57C U122C: the self-cleavage worked out at 1.
The value for G8U U9C A18U A78G A91G A111C was 0.
As for G7A A91G U100C A126G U139C, the self-cleavage is 2.43.
C6U A68G U122C: the self-cleavage came out at 0.66.
C6U A18G A33G: the self-cleavage came out at 1.01.
The value for U9A A118G U122C was 1.03.
Turning to A5U A24G A135G, the self-cleavage is 0.93.
Next, A5G C34U A86G: 0.83; A5G U37C A68U A96G U130C: 0.9.
Next, C6U A18G A60G A82G: 0.5.
Next, G7A A33U A82U U100C A117G: 0.14.
As to A5G U38A U70A, the self-cleavage was determined as 0.94.
For U9A A18G A22G, the self-cleavage came out at 1.42.
A5G U39C G73U U139C: the self-cleavage came to 0.61.
In the case of A5U A54G A69G A86G U120C, the self-cleavage came to 1.07.
In the case of U9A A22G A60U, the self-cleavage was found to be 0.89.
With G7U A18G A36G, the self-cleavage amounted to 0.67.
The value for G7A A11G A86G U87C A89G U102A U103A was 0.05.
Take A5G U43C A52G A69U U130C: the self-cleavage came out at 0.61.
Next, A5U A60U A64G A78U: 0.42; A5G U12C A66U A78C U87C A92G: 0.25; A5G U39A A135G: 1.04.
The value for A5G U38C A47G U87C was 1.36; that for A5G C32U U102C was 0.82.
The value for U9A C40U U43A U57C A126G was 1.3.
Regarding G7A A33U A94G A129G A134G, the self-cleavage was determined as 1.21.
For A5G G50A A54U A126U, the self-cleavage was 0.71.
For the variant A5G A89G U97C A110G U120G, the self-cleavage was determined as 0.09.
The value for G7U A18G A51U A96G U124G was 0.61.
As to A5G C32U U38A U87C U100C A111G, the self-cleavage came to 0.04.
Next, U9A U19C A33G U139A: 0.95; A5U A30U C77U: 1.72.
The value for C6U U49G U108C was 0.02; that for G7U C34U U72C was 0.37; that for A5G U37C A47G U49A A52G A64G A92C C105A U122A was 0.01.
Next, A5G U12G A63G U72G: 0.93.
With G7A A22C U87C A117G A129G, the self-cleavage amounted to 0.95.
Next, A5G C34A A62U: 1.55; A5U A51G A64U A90G A111G: 0.09.
The value for G7U U12C G41A was 1.31.
Next, A5G G29A A67G: 0.88.
On to U9A A30G A91G, for which the self-cleavage was found to be 1.5.
The value for G8A U19A A30G G106U A110G was 0.01; that for C6A A18G G119C U130A was 0.68; that for C6A A86G A110G A118G was 0.05.
A5U U39C A89G A117G: the self-cleavage turned out to be 0.93.
Consider A5G U12C U120A, for which the self-cleavage is 1.96.
Next, U9A U39C A63G A129G U131C: 1.16; C6U A33U A95G U132C: 1.09; G7A A13U A24C A30G U39C A125G U130G: 0.3.
The value for A5G C46U U72C was 0.29.
Next, A5U A27U A55G U131C: 0.79.
C6U A13G U39A: the self-cleavage was 0.53.
Next, A5U A69C A91G: 0.85; A5G U19A U108C: 0.06.
Next, G7C U12G A62U: 1.63; A5U A52U U72C A118U: 0.17.
The value for A5G U72C A98U U102A was 0.17.
As for U9A A23G U37C A96U A134G, the self-cleavage was 1.02.
